# Assay results published in the supplement of paper PMC8728848.
# Some of the results follow.
# Tests used:
# Assay in all cases: glycan array binding signal (z-score within array); higher = stronger binding
# Details in all cases: glycan notation: IUPAC condensed, linker removed; mutation: H262T
# [1] = molecular target: Gal3S(b1-3)[Fuc(a1-4)]GlcNAc
# Summary of the method: (§1)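 Glycan array data were curated from 3228 arrays in the Consortium for Functional Glycomics database and kept only where the protein sequence was available. Glycan names were converted to IUPAC-condensed notation, and columns mapping to the same glycan were averaged. The binding signal is a within-array Z-score, averaged across arrays of the same protein sequence at different concentrations or buffers and across linkers. Negative Z-scores can be read as non-binding.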
# Gal3S(b1-4)Glc = molecular target: Gal3S(b1-4)Glc
# Summary of the method: as §1
# Gal3S(b1-4)Glc6S = molecular target: Gal3S(b1-4)Glc6S
# Summary of the method: as §1
# Gal3S(b1-4)GlcNAc = molecular target: Gal3S(b1-4)GlcNAc
# Summary of the method: as §1
# [2] = molecular target: Gal3S(b1-4)[Fuc(a1-3)]Glc6S
# Summary of the method: as §1
# [3] = molecular target: Gal3S(b1-4)[Fuc(a1-3)]GlcNAc
# Summary of the method: as §1
# [4] = molecular target: Gal3S(b1-4)[Fuc(a1-3)]GlcNAc6S
# Summary of the method: as §1
# Gal3S4S(b1-4)GlcNAc = molecular target: Gal3S4S(b1-4)GlcNAc
# Summary of the method: as §1
# Gal3S6S(b1-4)GlcNAc = molecular target: Gal3S6S(b1-4)GlcNAc
# Summary of the method: as §1
# Gal3S6S(b1-4)GlcNAc6S = molecular target: Gal3S6S(b1-4)GlcNAc6S
# Summary of the method: as §1
# Gal4S(b1-4)GlcNAc = molecular target: Gal4S(b1-4)GlcNAc
# Summary of the method: as §1
# Gal4S6S(b1-4)GlcNAc = molecular target: Gal4S6S(b1-4)GlcNAc
# Summary of the method: as §1
# Gal6P(b1-4)GlcNAc = molecular target: Gal6P(b1-4)GlcNAc
# Summary of the method: as §1
# Gal6S(b1-3)GlcNAc = molecular target: Gal6S(b1-3)GlcNAc
# Summary of the method: as §1
# Gal6S(b1-3)GlcNAc6S = molecular target: Gal6S(b1-3)GlcNAc6S
# Summary of the method: as §1
# Gal6S(b1-4)Glc = molecular target: Gal6S(b1-4)Glc
# Summary of the method: as §1
# Gal6S(b1-4)Glc6S = molecular target: Gal6S(b1-4)Glc6S
# Summary of the method: as §1
# Gal6S(b1-4)GlcNAc = molecular target: Gal6S(b1-4)GlcNAc
# Summary of the method: as §1
# Gal6S(b1-4)GlcNAc6S = molecular target: Gal6S(b1-4)GlcNAc6S
# Summary of the method: as §1
# GalNAc(a1-3)Gal = molecular target: GalNAc(a1-3)Gal
# Summary of the method: as §1
# GalNAc(a1-3)GalNAc = molecular target: GalNAc(a1-3)GalNAc
# Summary of the method: as §1
# [5] = molecular target: GalNAc(a1-3)GalNAc(b1-3)Gal(a1-4)Gal(b1-4)Glc
# Summary of the method: as §1
# [6] = molecular target: GalNAc(a1-3)GalNAc(b1-3)Gal(a1-4)Gal(b1-4)GlcNAc
# Summary of the method: as §1
# GalNAc(b1-3)Gal = molecular target: GalNAc(b1-3)Gal
# Summary of the method: as §1
# [7] = molecular target: GalNAc(b1-3)Gal(a1-4)Gal(b1-4)GlcNAc
# Summary of the method: as §1
# [8] = molecular target: GalNAc(b1-3)Gal(a1-4)Gal(b1-4)GlcNAc(b1-3)Gal(b1-4)Glc
# Summary of the method: as §1
# [9] = molecular target: GalNAc(b1-3)Gal(a1-6)Gal(b1-4)Glc
# Summary of the method: as §1
# GalNAc(b1-3)GalNAc = molecular target: GalNAc(b1-3)GalNAc
# Summary of the method: as §1
# GalNAc(b1-3)GlcNAc = molecular target: GalNAc(b1-3)GlcNAc
# Summary of the method: as §1
# GalNAc(b1-4)Gal(b1-4)Glc = molecular target: GalNAc(b1-4)Gal(b1-4)Glc
# Summary of the method: as §1
# GalNAc(b1-4)GlcNAc = molecular target: GalNAc(b1-4)GlcNAc
# Summary of the method: as §1
# [10] = molecular target: GalNAc(b1-4)GlcNAc(b1-2)Man
# Summary of the method: as §1
# [11] = molecular target: GalNAc(b1-4)GlcNAc(b1-2)Man(a1-3)[GalNAc(b1-4)GlcNAc(b1-2)Man(a1-6)]Man(b1-4)GlcNAc(b1-4)GlcNAc
# Summary of the method: as §1
# [12] = molecular target: GalNAc(b1-4)GlcNAc(b1-3)GalNAc(b1-4)GlcNAc
# Summary of the method: as §1
# GalNAc(b1-4)GlcNAc6S = molecular target: GalNAc(b1-4)GlcNAc6S
# Summary of the method: as §1
# GalNAc(b1-6)GalNAc = molecular target: GalNAc(b1-6)GalNAc
# Summary of the method: as §1
# GalNAc3S(b1-4)GlcNAc = molecular target: GalNAc3S(b1-4)GlcNAc
# Summary of the method: as §1
# GalNAc3S(b1-4)GlcNAc3S = molecular target: GalNAc3S(b1-4)GlcNAc3S
# Summary of the method: as §1
# [13] = molecular target: GalNAc3S(b1-4)[Fuc(a1-3)]GlcNAc
# Summary of the method: as §1
# GalNAc4S6S(b1-4)GlcNAc = molecular target: GalNAc4S6S(b1-4)GlcNAc
# Summary of the method: as §1
# GalNAc6S(b1-4)GlcNAc = molecular target: GalNAc6S(b1-4)GlcNAc
# Summary of the method: as §1
# Glc(a1-4)Glc = molecular target: Glc(a1-4)Glc
# Summary of the method: as §1
# [14] = molecular target: Glc(a1-4)Glc(a1-4)Glc(a1-4)Glc
# Summary of the method: as §1
# Glc(a1-6)Glc(a1-6)Glc = molecular target: Glc(a1-6)Glc(a1-6)Glc
# Summary of the method: as §1
# [15] = molecular target: Glc(a1-6)Glc(a1-6)Glc(a1-6)Glc
# Summary of the method: as §1
binder,measurement,setting,value
MGL6A (Homo sapiens) (protein) MTRTYENFQYLENKVKVQGFKNGPLPLQSLLQRLCSGPCHLLLSLGLGLLLLVIICVVGFQNSKFQRDLVTLRTDFSNFTSNTVAEIQALTSQGSSLEETIASLKAEVEGFKQERQAVHSEMLLRVQQLVQDLKKLTCQVATLNNNGEEASTEGTCCPVNWVEHQDSCYWFSHSGMSWAEAEKYCQLKNAHLVVINSREEQNFVQKYLGSAYTWMGLSDPEGAWKWVDGTDYATGFQNWKPGQPDDWQGHGLGGGEDCAHFTPDGRWNDDVCQRPYHWVCEAGLGQTSQESH,glycan array binding signal (z-score),[1],-0.172
same,glycan array binding signal (z-score),Gal3S(b1-4)Glc,-0.173
same,glycan array binding signal (z-score),Gal3S(b1-4)Glc6S,-0.172
same,glycan array binding signal (z-score),Gal3S(b1-4)GlcNAc,-0.172
same,glycan array binding signal (z-score),[2],-0.167
same,glycan array binding signal (z-score),[3],-0.171
same,glycan array binding signal (z-score),[4],-0.176
same,glycan array binding signal (z-score),Gal3S4S(b1-4)GlcNAc,-0.177
same,glycan array binding signal (z-score),Gal3S6S(b1-4)GlcNAc,-0.168
same,glycan array binding signal (z-score),Gal3S6S(b1-4)GlcNAc6S,-0.166
same,glycan array binding signal (z-score),Gal4S(b1-4)GlcNAc,-0.177
same,glycan array binding signal (z-score),Gal4S6S(b1-4)GlcNAc,-0.178
same,glycan array binding signal (z-score),Gal6P(b1-4)GlcNAc,-0.174
same,glycan array binding signal (z-score),Gal6S(b1-3)GlcNAc,-0.175
same,glycan array binding signal (z-score),Gal6S(b1-3)GlcNAc6S,-0.191
same,glycan array binding signal (z-score),Gal6S(b1-4)Glc,-0.173
same,glycan array binding signal (z-score),Gal6S(b1-4)Glc6S,-0.173
same,glycan array binding signal (z-score),Gal6S(b1-4)GlcNAc,-0.175
same,glycan array binding signal (z-score),Gal6S(b1-4)GlcNAc6S,-0.175
same,glycan array binding signal (z-score),GalNAc(a1-3)Gal,1.07
same,glycan array binding signal (z-score),GalNAc(a1-3)GalNAc,-0.169
same,glycan array binding signal (z-score),[5],-0.167
same,glycan array binding signal (z-score),[6],-0.173
same,glycan array binding signal (z-score),GalNAc(b1-3)Gal,2.79
same,glycan array binding signal (z-score),[7],0.263
same,glycan array binding signal (z-score),[8],0.461
same,glycan array binding signal (z-score),[9],2.76
same,glycan array binding signal (z-score),GalNAc(b1-3)GalNAc,-0.161
same,glycan array binding signal (z-score),GalNAc(b1-3)GlcNAc,0.976
same,glycan array binding signal (z-score),GalNAc(b1-4)Gal(b1-4)Glc,-0.171
same,glycan array binding signal (z-score),GalNAc(b1-4)GlcNAc,0.415
same,glycan array binding signal (z-score),[10],1.26
same,glycan array binding signal (z-score),[11],0.007
same,glycan array binding signal (z-score),[12],1.59
same,glycan array binding signal (z-score),GalNAc(b1-4)GlcNAc6S,0.632
same,glycan array binding signal (z-score),GalNAc(b1-6)GalNAc,-0.172
same,glycan array binding signal (z-score),GalNAc3S(b1-4)GlcNAc,-0.171
same,glycan array binding signal (z-score),GalNAc3S(b1-4)GlcNAc3S,-0.171
same,glycan array binding signal (z-score),[13],-0.169
same,glycan array binding signal (z-score),GalNAc4S6S(b1-4)GlcNAc,-0.173
same,glycan array binding signal (z-score),GalNAc6S(b1-4)GlcNAc,0.267
same,glycan array binding signal (z-score),Glc(a1-4)Glc,-0.17
same,glycan array binding signal (z-score),[14],-0.176
same,glycan array binding signal (z-score),Glc(a1-6)Glc(a1-6)Glc,-0.175
same,glycan array binding signal (z-score),[15],-0.176
